From article PMC13083723 (Patterns, 2026)
In all, about 5,400 compounds went through this assay and about 190 (3.5%) showed an effect of 50% or more. This is one part of the list. Non-standard residues stand in square brackets, D forms with d. Residues, ends and D or L forms follow the SMILES beside them.

tested on: Vero-E6; assay: primary screen, phospholipidosis by LipidTOX staining; higher = more effect of the substance; conditions: 10 µM
Outline: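 Drug-induced phospholipidosis detected with HCS LipidTOX Red reagent in Vero-E6 cells. Compounds tested at 10 μM, with amiodarone (10 μM) as positive control and DMSO (0.1 v/v %) as vehicle.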

Q: Which result_ITMP does the source give for `O=C([O-])Cc1ccccc1Nc1c(Cl)cccc1Cl` here?
A: -2.2%

Q: Which result_ITMP does the source give for `COc1cccc2cc(-c3nc([C@H]4CC[C@H](C(=O)O)CC4)n4ncnc(N)c34)[nH]c12` here?
A: 7.64%

Q: How did the result_ITMP turn out when `COC(=O)C(Cc1ccc(OCCn2c(=O)sc3cc(C(=O)c4ccccc4)ccc32)cc1)C(=O)OC` was run?
A: 0.06%

Q: Which result_ITMP does the source give for `O=C1CCC[C@@H]2[C@H]3CCC[N+]4([O-])CCC[C@@H](CN12)[C@@H]34` (stereo partly shown) here?
A: -6.58%

Q: How did the result_ITMP turn out when `CS(=O)(=O)c1ccc(-c2cnc(NCc3ccco3)n3cnnc23)cc1` was run?
A: -9.74%

Q: With `O=C1NC(=O)c2c1c1c3ccccc3n3c1c1c2c2ccccc2n1C1CCC3O1` as the compound, how does the result_ITMP read?
A: -2.37%

Q: `C[C@@H](c1nc(-c2ccc(C#N)cc2)cs1)[C@](O)(Cn1cncn1)c1cc(F)ccc1F` was tested. Which result_ITMP did it give?
A: -5.39%

Q: `Nc1nc(O)c2c(n1)NCC(CNc1ccc(C(=O)N[C@@H](CCC(=O)O)C(=O)O)cc1)N2` (stereo partly shown) was tested. Which result_ITMP did it give?
A: -1.43%

Q: How did the result_ITMP turn out when `CN1[C@@H]2CC[C@H]1C[C@@H](OC(c1ccccc1)c1ccccc1)C2` was run?
A: 35.6%

Q: With `Cc1onc(-c2c(F)cccc2Cl)c1C(=O)N[C@@H]1C(=O)N2[C@@H]1SC(C)(C)[C@@H]2C(=O)[O-]` as the compound, how does the result_ITMP read?
A: -6.63%

Q: `O=C(CCBr)N1CC[N+]2(CC1)CC[N+]1(CCN(C(=O)CCBr)CC1)CC2` was tested. Which result_ITMP did it give?
A: 9.73%

Q: With `C[C@H](N)[C@H](O)c1ccc(O)c(O)c1` as the compound, how does the result_ITMP read?
A: -2.54%

Q: `O=C1CN(/N=C/c2ccc(-c3ccc([N+](=O)[O-])cc3)o2)C(=O)[N-]1` was tested. Which result_ITMP did it give?
A: -3.77%

Q: How did the result_ITMP turn out when `CC1(c2ccccc2)OC(C(=O)O)=CC1=O` (stereo not shown) was run?
A: -2.07%

Q: For `Clc1ccc(C(Cn2ccnc2)OCc2ccc(Sc3ccccc3)cc2)c(Cl)c1` (stereo not shown), which result_ITMP is on record?
A: 6.97%

Q: Which result_ITMP does the source give for `CC[C@H](C)C(=O)O[C@H]1C[C@@H](C)C=C2C=C[C@H](C)[C@H](CC[C@@H]3C[C@@H](O)CC(=O)O3)[C@H]21` here?
A: -4.83%

Q: With `FC(F)(F)C(F)(F)C(F)(F)N(C(F)(F)C(F)(F)C(F)(F)F)C(F)(F)C(F)(F)C(F)(F)F` as the compound, how does the result_ITMP read?
A: -3.2%

Q: `O=c1c2ccccc2nc2n1CCCCC2` was tested. Which result_ITMP did it give?
A: 0.69%

Q: Which result_ITMP does the source give for `N=C(N)NCCC[C@@H](NC(=O)[C@@H]1CCCN1C(=O)[C@@H]1CSSC[C@H](N)C(=O)N[C@@H](Cc2ccc(O)cc2)C(=O)N[C@@H](Cc2ccccc2)C(=O)N[C@@H](CCC(N)=O)C(=O)N[C@@H](CC(N)=O)C(=O)N1)C(=O)NCC(N)=O` here?
A: -1.55%

Q: For `Cc1c(C)c2c(c(C)c1O)CCC(C)(C(=O)O)O2` (stereo not shown), which result_ITMP is on record?
A: -2.19%

Q: With `O=C(Nc1ccccc1)N1CCC(Cc2cnc3ccccc3c2)CC1` as the compound, how does the result_ITMP read?
A: -3.15%

Q: For `O=C(O)CCNc1cc(N2CCc3ccccc3CC2)nc(-c2cccnc2)n1`, which result_ITMP is on record?
A: 0.42%

Q: `CCCCCCCC/C=C\CCCCCCCC(=O)NCCO` was tested. Which result_ITMP did it give?
A: -1.1%

Q: With `CC(C)OC(=O)CNC(=O)[C@H](CS)NC(=O)CC[C@H](N)C(=O)O` as the compound, how does the result_ITMP read?
A: -6.76%

Q: `C[C@@H](O)[C@H]1C(=O)N2C(C(=O)O)=C(S[C@@H]3CN[C@H](C(=O)N(C)C)C3)[C@H](C)[C@H]12` was tested. Which result_ITMP did it give?
A: -1.56%

Q: How did the result_ITMP turn out when `CC(=O)NCC(=O)N[C@H](CCC(=O)O)C(=O)O` (Ac-Gly-[dE]-OH) was run?
A: -1.79%

Q: `O=C(O)[C@H](O)[C@@H](O)[C@H](O[C@@H]1O[C@H](CO)[C@H](O)[C@H](O)[C@H]1O)[C@H](O)CO` was tested. Which result_ITMP did it give?
A: -2.78%

Q: For `COc1ccc(NC(=O)c2ccc(C(=N)N(C)C)cc2)c(C(=O)Nc2ccc(Cl)cn2)c1`, which result_ITMP is on record?
A: -7.3%

Q: How did the result_ITMP turn out when `CCc1oc2ccccc2c1C(=O)c1ccc(OCC(=O)O)cc1` was run?
A: -9.49%

Q: Which result_ITMP does the source give for `O[C@H]1CC[C@H](Nc2ncc3nc(Nc4c(F)cc(F)cc4F)n([C@H]4CCOC4)c3n2)CC1` here?
A: 0.08%

Q: Which result_ITMP does the source give for `Cc1cc(C)cc(OCC2CNC(=O)O2)c1` (stereo not shown) here?
A: 2.1%

Q: With `Cc1ccc(-c2nc3ccc(C)cn3c2CC(=O)N(C)C)cc1` as the compound, how does the result_ITMP read?
A: -1.72%

Q: How did the result_ITMP turn out when `CCCCCCCCCCCCCCCC(=O)OC[C@H](COP(=O)([O-])OCC[N+](C)(C)C)OC(=O)CCCCCCCCCCCCCCC` was run?
A: 2.02%

Q: For `C[C@]12C=CC(=O)C=C1CC[C@H]1[C@@H]3C[C@@H](O)[C@](O)(C(=O)CO)[C@@]3(C)C[C@H](O)[C@@]12F`, which result_ITMP is on record?
A: -2.83%

Q: For `O=C(O)/C=C/c1c[nH]cn1`, which result_ITMP is on record?
A: -3.59%

Q: For `N#Cc1ccc(COC[C@H]2O[C@@H](n3c(NCc4ccc(Cl)c(Cl)c4)nc4c(N)ncnc43)[C@H](O)[C@@H]2O)cc1`, which result_ITMP is on record?
A: 1.67%

Q: How did the result_ITMP turn out when `CC1(C)O[C@@H]2C[C@H]3[C@@H]4CCC5=CC(=O)CC[C@]5(C)[C@@]4(F)[C@@H](O)C[C@]3(C)[C@]2(C(=O)CCl)O1` was run?
A: 0.62%

Q: For `CC(=O)NCCCS(=O)(=O)[O-]`, which result_ITMP is on record?
A: 7.64%

Q: For `CCCC(=O)C1CCN(c2ncnc3c2CN(C(=O)c2ccc(-c4ccccc4)cc2)CC3)CC1`, which result_ITMP is on record?
A: -1.76%

Q: With `C=C1CCN([C@H](C)[C@](O)(Cn2cncn2)c2ccc(F)cc2F)CC1` as the compound, how does the result_ITMP read?
A: -1.52%

Q: For `CN(C)CCN(C)CCc1ccc(Cl)c(Cl)c1`, which result_ITMP is on record?
A: 43.5%

Q: With `CCN(CC)C(=O)/C(C#N)=C/c1cc(O)c(O)c([N+](=O)[O-])c1` as the compound, how does the result_ITMP read?
A: -9.58%

Q: How did the result_ITMP turn out when `Nc1nc(N)nc(NC2CC2)n1` was run?
A: 6.38%

Q: With `C[C@@H]1O[C@@H](OC[C@H]2O[C@@H](Oc3c(-c4ccc(OCCO)c(OCCO)c4)oc4cc(OCCO)cc(O)c4c3=O)[C@H](O)[C@@H](O)[C@@H]2O)[C@H](O)[C@H](O)[C@H]1O` as the compound, how does the result_ITMP read?
A: -1.19%

Q: Which result_ITMP does the source give for `COc1ccc2c(c1)c(CC(=O)N1CCOCC1)c(C)n2C(=O)c1ccc(Cl)cc1` here?
A: -7.89%

Q: With `CC(C)(C)n1nc(-c2cccc3ccccc23)c2c(N)ncnc21` as the compound, how does the result_ITMP read?
A: 1.01%

Q: With `OC(c1cc(C(F)(F)F)nc2c(C(F)(F)F)cccc12)C1CCCCN1` (stereo not shown) as the compound, how does the result_ITMP read?
A: 50%

Q: `CNCCCC12CCC(c3ccccc31)c1ccccc12` was tested. Which result_ITMP did it give?
A: 107%

Q: Which result_ITMP does the source give for `CCc1c(O)cc(O)c(C(=O)c2ccc(OCCN3CCOCC3)c(OC)c2)c1CC(=O)N(CCOC)CCOC` here?
A: -2.15%

Q: How did the result_ITMP turn out when `COc1ccc(CCN2CCN(CCCc3ccccc3)CC2)cc1OC` was run?
A: 12%

Q: With `O=C1Cc2c([nH]c3ccc(Br)cc23)-c2ccccc2N1` as the compound, how does the result_ITMP read?
A: -5.18%

Q: With `Cc1coc2c1C(=O)C(=O)c1c-2ccc2c1CCCC2(C)C` as the compound, how does the result_ITMP read?
A: -0.72%
